{"source": "paper PMC6919601", "about": "“Identification of Plasmodium dipeptidyl aminopeptidase allosteric inhibitors by high throughput screening” (PLoS ONE, 2019)", "note": "Screen size: about 110,000 compounds; about 230 (0.21%) showed an effect of 50% or more. This is one part of the list.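 Further: 30 min substrate incubation versus DMSO and 10 µM JCP410 controls.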", "data": [{"target": "DPAP1 (Plasmodium falciparum, UniProt Q8IIJ9)", "sequence (Q8IIJ9 whole entry, looked up)": "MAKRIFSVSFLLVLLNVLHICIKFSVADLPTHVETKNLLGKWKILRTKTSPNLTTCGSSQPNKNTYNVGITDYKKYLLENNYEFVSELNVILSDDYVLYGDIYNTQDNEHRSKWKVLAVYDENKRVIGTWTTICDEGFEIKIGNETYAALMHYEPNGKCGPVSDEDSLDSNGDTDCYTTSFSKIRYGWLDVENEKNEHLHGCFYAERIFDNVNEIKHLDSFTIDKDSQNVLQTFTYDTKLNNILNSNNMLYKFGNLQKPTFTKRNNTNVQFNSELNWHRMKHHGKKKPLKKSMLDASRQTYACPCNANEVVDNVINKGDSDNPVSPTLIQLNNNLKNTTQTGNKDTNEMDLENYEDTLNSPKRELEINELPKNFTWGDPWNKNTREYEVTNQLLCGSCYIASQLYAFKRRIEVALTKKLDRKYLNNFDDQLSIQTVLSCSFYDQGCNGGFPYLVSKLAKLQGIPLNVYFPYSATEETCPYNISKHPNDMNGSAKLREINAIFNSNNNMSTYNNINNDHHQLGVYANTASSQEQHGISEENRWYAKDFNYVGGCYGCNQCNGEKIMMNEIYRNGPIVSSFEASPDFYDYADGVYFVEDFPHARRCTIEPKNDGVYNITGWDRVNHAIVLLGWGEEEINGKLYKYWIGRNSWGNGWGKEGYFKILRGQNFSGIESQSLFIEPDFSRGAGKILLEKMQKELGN", "assay": "primary screen, percent inhibition; read by cleavage of a fluorogenic dipeptide substrate; higher = more effect of the substance", "design": "species or system P. falciparum D10 trophozoite lysates; single well", "units": {"% Inhibition @ 10 uM": "%"}, "values": [{"smiles": "COc1ccc(C)cc1N(CC(=O)N1CCN(c2ccccc2F)CC1)S(C)(=O)=O", "% Inhibition @ 10 uM": 1.64}, {"smiles": "COc1cc(CN2CCN(Cc3ccccc3Cl)CC2)cc(OC)c1OC", "% Inhibition @ 10 uM": 18.9}, {"smiles": "COc1ccccc1/C=C/C(=O)c1c(O)nc(C)c2c1CCCC2", "% Inhibition @ 10 uM": -2.54}, {"smiles": "COc1ccc(CC(=O)Nc2sc(Cc3ccccc3)c(C)c2C(N)=O)cc1", "% Inhibition @ 10 uM": 0.727}, {"smiles": "CCOc1ccc(CCNCc2c(C(=O)O)n(Cc3ccccc3)c3ccccc23)cc1", "% Inhibition @ 10 uM": 0.277}, {"smiles": "COC(=O)c1ccc(CS(=O)c2ccc(Br)cc2)o1", "note": "(stereo not drawn)", "% Inhibition @ 10 uM": -1.99}, {"smiles": "CS(=O)(=O)N(CC(=O)N1CCN(c2cccc(Cl)c2)CC1)C1CCCCC1", "% Inhibition @ 10 uM": -3.43}, {"smiles": "Cc1nn(Cc2ccc(C(=O)Nc3cccc(C(=O)O)c3)o2)c(C)c1Cl", "% Inhibition @ 10 uM": 5.05}, {"smiles": "Fc1ccc(C2CC(c3cccc(Br)c3)Nc3nnnn32)cc1", "note": "(stereo not drawn)", "% Inhibition @ 10 uM": 3.32}, {"smiles": "CCCCC1=C(O)C(=O)c2ccccc2C1=O", "% Inhibition @ 10 uM": 2.26}, {"smiles": "CCCn1c2ccccc2c2cnn(CC(=O)NC3=NC(=O)CS3)c(=O)c21", "% Inhibition @ 10 uM": 3.05}, {"smiles": "O=C(CNCc1ccco1)Nc1cccc(Cl)c1Cl", "% Inhibition @ 10 uM": -6.24}, {"smiles": "Cc1cc2nc(-c3ccc(C(=O)O)cc3)[nH]c2cc1C", "% Inhibition @ 10 uM": 7.45}, {"smiles": "Cc1ccc(C2CC(=O)N=C(NC(=O)c3ccc(Oc4ccccc4)cc3)N2)cc1", "note": "(stereo not drawn)", "% Inhibition @ 10 uM": -1.28}, {"smiles": "COC(=O)c1cccc(NC(=O)COc2ccccc2)c1", "% Inhibition @ 10 uM": -5.51}, {"smiles": "CN(C)c1ccc(/C=C2/Sc3ccccc3C2=O)cc1", "% Inhibition @ 10 uM": -5.9}, {"smiles": "OCC1CCCN(Cc2ccc(Cl)cc2Cl)C1", "note": "(stereo not drawn)", "% Inhibition @ 10 uM": 6.53}, {"smiles": "CCc1nnc(NC(=O)C2CCCCC2)s1", "% Inhibition @ 10 uM": 4.82}, {"smiles": "Cc1noc(NS(=O)(=O)c2ccc(NC(=O)C(C)Oc3ccc(Cl)cc3Cl)cc2)c1C", "note": "(stereo not drawn)", "% Inhibition @ 10 uM": 4.81}, {"smiles": "CCCC(C)N1CCN(C(=O)CCCCn2c(=S)[nH]c3c([nH]c4ccc(OC)cc43)c2=O)CC1", "note": "(stereo not drawn)", "% Inhibition @ 10 uM": 13.8}, {"smiles": "CCOC(=O)c1c(C)[nH]c(C)c1S(=O)(=O)NC1CCCc2ccccc21", "note": "(stereo not drawn)", "% Inhibition @ 10 uM": -0.884}, {"smiles": "CCN(CCCNC(=O)Cn1nc(C)n2c(cc3sccc32)c1=O)Cc1ccccc1", "% Inhibition @ 10 uM": 0.137}, {"smiles": "CCC(=O)NCCc1ccc(OC)cc1", "% Inhibition @ 10 uM": -1.76}, {"smiles": "COc1cccc(-c2n[nH]c(SCC(=O)O)n2)c1", "% Inhibition @ 10 uM": -1.8}, {"smiles": "COCCn1c(=O)c2sc3ccccc3c2n(Cc2ccc(C)cc2C)c1=O", "% Inhibition @ 10 uM": 4.91}, {"smiles": "NC(=S)Nc1nc2cc(Cl)cc(Cl)c2nc1O", "% Inhibition @ 10 uM": 6.82}, {"smiles": "CN(C)CCCNC(=O)/C(=C\\c1ccc(-c2ccc([N+](=O)[O-])cc2)o1)NC(=O)c1ccccc1", "% Inhibition @ 10 uM": -9.6}, {"smiles": "CCOC(=O)C1CCCCN1Cc1cccc2ccccc12", "note": "(stereo not drawn)", "% Inhibition @ 10 uM": -0.192}, {"smiles": "O=C(CCc1nnc2n(Cc3ccccc3)c(=O)c3ccccc3n12)NCC1CCCO1", "note": "(stereo not drawn)", "% Inhibition @ 10 uM": -6.07}, {"smiles": "Cc1sc(NC(=O)c2cccnc2)c(C#N)c1C", "% Inhibition @ 10 uM": -0.996}, {"smiles": "COC(=O)C1=C(C)NC(=O)CC1c1cccc(F)c1", "note": "(stereo not drawn)", "% Inhibition @ 10 uM": 0.219}, {"smiles": "CC1(C)CC(=O)C2=C(C1)N=C(S)C(C#N)C2c1ccc(Cl)cc1", "note": "(stereo not drawn)", "% Inhibition @ 10 uM": 7.12}, {"smiles": "CCOC(=O)c1c(S(=O)(=O)N2CCC(c3ccccc3)C2)c(C)n(C)c1C", "note": "(stereo not drawn)", "% Inhibition @ 10 uM": -9.47}, {"smiles": "CCOC(=O)N1CCC(NC(=O)C2CCCN(c3nc4c(C)cc(C)cc4s3)C2)CC1", "note": "(stereo not drawn)", "% Inhibition @ 10 uM": 1.8}, {"smiles": "CCN(CC)CCCNC(=O)c1ccc(CN2CC(=O)N3CCCCC3C2=O)cc1", "note": "(stereo not drawn)", "% Inhibition @ 10 uM": 7.23}, {"smiles": "CCCN(CCC)C(=O)C1Sc2nnc(C)n2NC1c1ccc(OCC)cc1", "note": "(stereo not drawn)", "% Inhibition @ 10 uM": -3.53}, {"smiles": "COc1cccc(S(=O)(=O)NCC(=O)Nc2ccc(C(C)(C)C)cc2)c1", "% Inhibition @ 10 uM": -5.26}, {"smiles": "CCCCSc1nc(O)cc(-c2ccccc2)n1", "% Inhibition @ 10 uM": 5.49}, {"smiles": "CCOC(=O)C1CCN(Cc2ccc(O)c(OC)c2)CC1", "% Inhibition @ 10 uM": 1.63}, {"smiles": "OCCN1CCN(Cc2cccc(C(F)(F)F)c2)CC1", "% Inhibition @ 10 uM": 0.526}, {"smiles": "CC(O)CN(Cc1ccc(-c2ccccc2)cc1)CC(C)O", "note": "(stereo not drawn)", "% Inhibition @ 10 uM": -1.5}, {"smiles": "O=C(Nc1cccc(Cl)c1)N1CCCCCC1", "% Inhibition @ 10 uM": -4.35}, {"smiles": "COCCN(CCOC)c1ncnc2c1cnn2-c1cccc(C)c1", "% Inhibition @ 10 uM": 5.99}, {"smiles": "Cc1cc(N2CCNCC2)nc(-c2ccccc2O)n1", "% Inhibition @ 10 uM": 4.42}, {"smiles": "CC1(C)CC(NC(=O)c2cccs2)CC(C)(CNC(=O)c2cccs2)C1", "note": "(stereo not drawn)", "% Inhibition @ 10 uM": -6.62}, {"smiles": "COc1ccccc1CC(=N)NOC(=O)c1cccc(Br)c1", "% Inhibition @ 10 uM": 2.17}, {"smiles": "CC(=O)c1ccc(NC(=O)NC2CCCCC2)cc1", "% Inhibition @ 10 uM": 3.67}, {"smiles": "CNC(=O)/C(=C\\c1ccccc1)NC(=O)c1ccccc1Br", "% Inhibition @ 10 uM": -0.759}, {"smiles": "O=C(O)c1ccc2[nH]c3c(c2c1)CSCC3", "% Inhibition @ 10 uM": -4.3}, {"smiles": "COc1ccc(N2C(=O)C(Cl)=C(NCc3ccccc3)C2=O)cc1", "% Inhibition @ 10 uM": -1.37}, {"smiles": "COc1ccc(/C=C(\\NC(=O)c2ccccc2)C(=O)NCCCn2ccnc2)cc1", "% Inhibition @ 10 uM": 4.95}, {"smiles": "COc1cc2c(cc1OC)C1=NNC(=O)C1=NC(C)(C)C2", "% Inhibition @ 10 uM": 3.04}, {"smiles": "CCOC(=O)C1=C(CN2CCn3cccc3C2C)NC(=O)NC1c1cccc(OC)c1OC", "note": "(stereo not drawn)", "% Inhibition @ 10 uM": 0.44}, {"smiles": "CCCOc1ccc(C(=O)ON=C2CCN(C)CC2)cc1", "% Inhibition @ 10 uM": -0.615}, {"smiles": "CCN(CC)C1=NC=CC(c2ccccc2)=CC1SC", "note": "(stereo not drawn)", "% Inhibition @ 10 uM": -4.06}, {"smiles": "Cn1nc(C(=O)n2ccnc2)c2c1-c1ccccc1SC2", "% Inhibition @ 10 uM": -1.72}, {"smiles": "FC(F)(F)c1cccc(N2CCN(Cc3c[nH]c4ccccc34)CC2)c1", "% Inhibition @ 10 uM": -5.65}, {"smiles": "COc1ccccc1Nc1nc2ccccc2n1C", "% Inhibition @ 10 uM": 1.92}, {"smiles": "Cc1ccc(C2(c3ccc(C)cc3)CC2C(=O)Nc2nccs2)cc1", "note": "(stereo not drawn)", "% Inhibition @ 10 uM": -1.91}, {"smiles": "COc1cc(CN2CCNCC2CCO)cc(OC)c1", "note": "(stereo not drawn)", "% Inhibition @ 10 uM": -4.78}, {"smiles": "COc1ccc(-c2noc(CNS(=O)(=O)c3ccc(C)cc3)n2)cc1", "% Inhibition @ 10 uM": 2.14}, {"smiles": "O=C(COc1ccccc1)Nc1ccccc1C(=O)Nc1ccccc1", "% Inhibition @ 10 uM": -0.795}, {"smiles": "Cc1ccccc1OCC(=O)Nc1ccc(S(=O)(=O)N2CCCC2)cc1", "% Inhibition @ 10 uM": 0.755}, {"smiles": "CC1=C(C(=O)Nc2ccc(Br)cn2)C(c2ccc(F)cc2)C2=C(O)CC(C)(C)CC2=N1", "note": "(stereo not drawn)", "% Inhibition @ 10 uM": -5.79}, {"smiles": "Cc1cccc(Cc2c(C)nc3nc(SCC(=O)NCc4ccc5c(c4)OCO5)nn3c2C)c1", "% Inhibition @ 10 uM": 0.813}, {"smiles": "O=C(O)CCC(=O)N1N=C(c2cccs2)CC1c1cccs1", "note": "(stereo not drawn)", "% Inhibition @ 10 uM": 3.35}]}]}
